Experimental data taken from PubChem BioAssay AID504832 (National Center for Advancing Translational Sciences (NCATS), 2011).
In all, about 310,000 compounds went through this assay and about 18,000 (5.8%) were called active. The inconclusive results got no clear call from the source; some entries with a clear call stand among them for comparison. Calls come from the whole dose curve; as a rule, active = well fitted inhibition curve with a large enough effect; inconclusive = small, poorly fitted or top-dose-only effect, or another doubt; inactive = no such curve, though single readings can be large or run the other way. Potencies of inconclusive entries are left out as doubtful fits.
% is set by controls: 0 for no effect and ±100 for the full control effect; potency is the fitted concentration of half-maximal effect; tags give direction and shape of the fitted curve.

Test: Primary qHTS for delayed death inhibitors of the malarial parasite plastid, 48 hour incubation
Details: P. falciparum luciferase growth in erythrocytes; series mostly up to 28.7 µM; activity change, negative = inhibition: at the top concentration
Outline: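 Luminescence readout; reporter = integrated firefly luciferase in P. falciparum. RBC culture at 2% hematocrit, 0.1% parasitemia final, 37 C/5% CO2; decreased signal taken as growth inhibition.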
For CCOc1cc(S(=O)(=O)NCc2ccccc2)ccc1Br, the “activity change, negative = inhibition” value was inactive: 18.3%. For COCCCNC(=O)c1cc(-c2cccnc2)nc2ccccc12, the “activity change, negative = inhibition” value was inactive: 11.1%. With Cc1sc2nc(C(C)Sc3nnc(C)n3-c3ccccc3)[nH]c(=O)c2c1C (configuration not stated) the “activity change, negative = inhibition” value was inactive: -23.1%. In the case of CC1(C(=O)N/N=C/c2cc3c(cc2Br)OCO3)CC1(Br)Br (configuration not stated), the Potency was inconclusive [inhibitor, single point]. For O=C(NC1=C(Nc2ccc(Cl)cc2)C(=O)c2ccccc2C1=O)c1ccccc1, the Potency was active: 0.131 µM. For O=C1Nc2cc(Br)ccc2C1(O)c1ccccc1O (configuration not stated), the Potency was inconclusive [inhibitor, single point]. For Cc1ccc(N(Cc2ccccc2)C(=O)c2ccc(C)c(S(=O)(=O)N3CCOCC3)c2)cc1, the Potency was active: 6.57 µM. In the case of N#C/C(C(=O)N1CCOCC1)=C1/SC(Cc2ccccc2Cl)C(=O)N1c1ccccc1 (configuration not stated), the “activity change, negative = inhibition” value was inactive: -9.95%. With Cc1sc(NC(=O)Cn2c(=O)oc3ccccc32)nc1-c1ccc(Cl)cc1 the “activity change, negative = inhibition” value was inactive: 24.2%. For Cc1ccc(C)c(NC(=O)c2cc([N+](=O)[O-])cc([N+](=O)[O-])c2)c1, the Potency was inconclusive [inhibitor, single point]. With CCOC(=O)N/N=C/c1ccc(N(CC)CC)cc1O the Potency was inconclusive [inhibitor, single point]. In the case of O=C(C#Cc1ccccc1)NCc1ccccc1F, the “activity change, negative = inhibition” value was inactive: 15.8%. In the case of CCOc1ccc2oc(C(=O)NCC(c3ccco3)N(C)C)c(C)c2c1 (configuration not stated), the “activity change, negative = inhibition” value was inactive: 0.227%. With O=C(COC(=O)c1cn(-c2ccccc2)nc1-c1ccccc1)Nc1ncc(Cl)cc1Cl the Potency was inconclusive [inhibitor, single point]. For O=C1c2ccccc2C(=O)c2c1cccc2-n1nnc2ccccc21, the Potency was inconclusive [inhibitor, single point]. With CCCn1c(=O)c(F)cn(Cc2ccc(OC)c([N+](=O)[O-])c2)c1=O the “activity change, negative = inhibition” value was inactive: 8.55%. For COc1cc(/C=C(/NC(=O)c2ccccc2)C(=O)N2CCOCC2)c([N+](=O)[O-])cc1OC, the Potency was inconclusive [inhibitor, single point]. For N#Cc1ccc(CN2CCN(C(=O)CNC(=O)Cc3cccc4ccccc34)CC2)cc1, the Potency was inconclusive [inhibitor, single point]. With Cc1cc(C)cc(-n2nnc(C(=O)NCc3ccc4c(c3)OCO4)c2N)c1 the Potency was inconclusive [inhibitor, single point]. In the case of Cn1cnc(C(F)(F)F)c1-c1ccc([N+](=O)[O-])cc1, the Potency was inconclusive [inhibitor, partial curve]. In the case of COc1ccc(CC(=O)NCc2n[nH]c(=S)n2-c2ccccc2)cc1, the “activity change, negative = inhibition” value was inactive: -2.25%. With Cc1ccc(-n2c(CCC(=O)O)ccc2-c2cccs2)cc1 the “activity change, negative = inhibition” value was inactive: 15.4%. In the case of O=C(CNC(=O)c1cccc(-n2cnnn2)c1)Nc1ccc(F)c(F)c1, the “activity change, negative = inhibition” value was inactive: -3.18%. With CCOC(=O)[C@H]1[C@H]2COc3ccc(C)cc3[C@@H]2N2C(=O)CN(Cc3ccc(Cl)cc3)C(=O)[C@@]12C the Potency was inconclusive [inhibitor, single point]. With Oc1ccc(N2CCN(Cc3c(-c4ccccc4)nc4ccccn34)CC2)cc1 the Potency was inconclusive [inhibitor, single point]. For O=C(CCN1C(=O)/C(=C/c2ccccc2Cl)SC1=S)N1CCCC1, the Potency was inconclusive [inhibitor, single point]. In the case of O=C(Nc1cnn(Cc2ccc(F)cc2)c1)c1cc2nc(-c3ccco3)cc(C(F)(F)F)n2n1, the “activity change, negative = inhibition” value was inactive: 7.08%. In the case of COc1ccc(NC(=O)CC2C(=O)N(c3cccc(OC)c3)C(=O)N2C2CCCCC2)cc1 (configuration not stated), the Potency was inconclusive [inhibitor, single point]. With O=C(c1ccc(F)cc1)[C@@H]1[C@@H](C(=O)c2ccccc2)[C@@]2(C(=O)Nc3ccccc32)[C@H]2c3ccccc3C=CN12 the Potency was inconclusive [inhibitor, single point]. In the case of O=[N+]([O-])c1ccccc1CN1CCN(Cc2ccc3ccccc3c2)CC1, the Potency was inconclusive [inhibitor, partial curve, poor fit]. For CCCCN(C(=O)c1ccc(-c2ccc(Cl)cc2)o1)c1c(N)n(CC(C)C)c(=O)[nH]c1=O, the Potency was inconclusive [inhibitor, single point]. For CCOc1ccc(NC2=NCC(=O)N2CCc2ccccc2)cc1, the Potency was inconclusive [inhibitor, single point]. For Cc1ccc(N2C(=O)N(CC(=O)C(C)(C)C)c3ccccc3S2(=O)=O)cc1, the Potency was inconclusive [inhibitor, single point]. For CCOC(=O)c1cnn(-c2ccccc2)c1-n1cccc1C(=O)C(=O)Nc1ccccc1C(F)(F)F, the Potency was active: 13.1 µM. With CC(C)C(OC(=O)c1cc2c(s1)CCCCC2)C(=O)NC(N)=O (configuration not stated) the “activity change, negative = inhibition” value was inactive: 10.3%. With CCOC(=O)C1=C(CSc2nc(CC)c(C)cc2C#N)OC(N)=C(C#N)C1c1ccc(OC)cc1 (configuration not stated) the Potency was inconclusive [inhibitor, single point]. With CN(C)CCCN(C(=O)/C=C/c1cccs1)c1nc2c(F)cccc2s1 the Potency was inconclusive [inhibitor, full curve, poor fit]. For Cc1c(NC(=O)C(C)Sc2nc3ccccc3c(=O)n2CCO)c(=O)n(-c2ccccc2)n1C (configuration not stated), the “activity change, negative = inhibition” value was inactive: 77.8%. With c1ccc(Cn2c(CNc3nc4ccccc4n3CCN3CCCCC3)nc3ccccc32)cc1 the Potency was active: 4.65 µM. With CN(CCc1ccccc1)C(=O)CCc1nnc(Cc2ccc3c(c2)OCO3)o1 the Potency was inconclusive [inhibitor, single point]. For Cc1c(CCC(=O)O)c(=O)oc2cc3occ(-c4ccc(Br)cc4)c3cc12, the Potency was inconclusive [inhibitor, single point]. In the case of Cc1ccc2[nH]cc(C(=O)NCc3cccs3)c(=O)c2c1, the Potency was inconclusive [inhibitor, single point]. With Cc1cccc(/C=N/NC(=O)c2cc(C3CC3)nc3ccccc23)n1 the “activity change, negative = inhibition” value was inactive: 6.69%. With CCCCn1c(=O)c(C(=O)Nc2ccccc2)c(O)c2ccccc21 the Potency was inconclusive [inhibitor, single point]. With COc1cc(C(=O)NCC(c2cccnc2)N2CCN(c3ccc(F)cc3)CC2)cc(OC)c1OC (configuration not stated) the Potency was inconclusive [inhibitor, partial curve, poor fit]. With Cc1ccc(-n2cccn2)c(CN2CCCC(C(=O)c3sccc3C)C2)c1 (configuration not stated) the Potency was inconclusive [inhibitor, partial curve, poor fit]. For O=C(Nc1sc2c(c1C(=O)O)CCC2)c1ccccc1Cl, the Potency was inconclusive [inhibitor, full curve, poor fit]. In the case of Cn1ncc(Cl)c1C(=O)Nc1ccc2c(c1)OCO2, the “activity change, negative = inhibition” value was inactive: 31.2%. For c1ccc(-n2cnc3cc(NCc4ccco4)ccc32)cc1, the “activity change, negative = inhibition” value was inactive: 20.4%. In the case of CCn1c(SCc2ccc(C(=O)Nc3cc(C)cc(C)c3)cc2)nnc1-c1ccncc1, the Potency was inconclusive [inhibitor, partial curve, poor fit]. In the case of COc1cc(OC)c(C(=O)Nc2ccc(S(=O)(=O)N3CCCCC3)cc2)cc1OC, the Potency was inconclusive [inhibitor, partial curve, poor fit]. In the case of O=C(Nc1nc2ccc(F)cc2s1)C1CCN(S(=O)(=O)c2cc([N+](=O)[O-])ccc2Cl)CC1, the Potency was inconclusive [inhibitor, single point]. For Cc1cccnc1NC(=O)CCNC(=O)c1ccccc1Cl, the “activity change, negative = inhibition” value was inactive: 13.4%. For CCN(CC)S(=O)(=O)c1ccc(N2CCOCC2)c(NC(=O)CNCCc2ccccc2)c1, the Potency was inconclusive [inhibitor, partial curve, poor fit]. With CCCCCc1ccc(OCCC[n+]2ccccc2)c(CCCCC)c1 the Potency was active: 1.85 µM. With Cc1cc2c(ncn2Cc2ccccc2)c([N+](=O)[O-])c1C the Potency was inconclusive [inhibitor, single point]. For O=C(c1ccccc1)N1CCn2c1nc1ccccc12, the Potency was inconclusive [inhibitor, single point]. With Cc1cc(=O)oc2c3c(cc(OCC(=O)N[C@@H](Cc4ccccc4)C(=O)O)c12)OC(C)(C)CC3 the “activity change, negative = inhibition” value was inactive: -17.6%. With O=S(=O)(c1ccc(F)cc1F)N1CCCN(c2ccc(C(F)(F)F)cn2)CC1 the Potency was inconclusive [inhibitor, partial curve, poor fit]. With CC(C)CN(C(=O)CSc1nc2ccccc2o1)c1c(N)n(Cc2ccccc2)c(=O)[nH]c1=O the Potency was inconclusive [inhibitor, single point]. In the case of COc1cc(NC(=O)c2cccs2)c(C(=O)OCC(=O)NCc2ccco2)cc1OC, the Potency was inconclusive [inhibitor, single point]. For Cc1ccc(C(NC(=O)N2CCCC2)C(Cl)Cl)cc1F (configuration not stated), the Potency was inconclusive [inhibitor, partial curve, poor fit]. For COc1ccc2c(COC(=O)[C@@H]3CCCN3S(=O)(=O)c3ccc(Cl)cc3)cc(=O)oc2c1, the “activity change, negative = inhibition” value was inactive: 4.75%. For CCN(CC)CCC#CC(O)(c1ccccc1)C1CCCCC1 (configuration not stated), the Potency was inconclusive [inhibitor, partial curve, poor fit]. For Cc1ccc(C)c(Cn2nc3c4ccccc4n(Cc4ccccc4)cc-3c2=O)c1, the Potency was active: 13.1 µM. For CC(C)N1CCc2c(sc(NC(=O)c3ccc(S(=O)(=O)N4CCOCC4)cc3)c2C(N)=O)C1, the Potency was inconclusive [inhibitor, partial curve]. For C#C[C@]1(O)CC[C@H]2[C@@H]3CCc4cc(OC)ccc4[C@H]3CC[C@@]21C, the Potency was “inactive”.
